# The whole screen tested about 310,000 compounds, of which about 14,000 (4.5%) showed an effect of 50% or more. The effect is printed as a negative number. The list shows a part of the results.
# Molecular target: human ether-à-go-go-related gene (hERG) potassium channel (human, UniProt Q12809)
# Assay: primary screen, population patch clamp on CHO cells stably expressing hERG
# 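Further: peak tail current of the secondary pulse compared with the same well before compound.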
# human ether-à-go-go-related gene (hERG) potassium channel, sequence (Q12809 whole entry, looked up): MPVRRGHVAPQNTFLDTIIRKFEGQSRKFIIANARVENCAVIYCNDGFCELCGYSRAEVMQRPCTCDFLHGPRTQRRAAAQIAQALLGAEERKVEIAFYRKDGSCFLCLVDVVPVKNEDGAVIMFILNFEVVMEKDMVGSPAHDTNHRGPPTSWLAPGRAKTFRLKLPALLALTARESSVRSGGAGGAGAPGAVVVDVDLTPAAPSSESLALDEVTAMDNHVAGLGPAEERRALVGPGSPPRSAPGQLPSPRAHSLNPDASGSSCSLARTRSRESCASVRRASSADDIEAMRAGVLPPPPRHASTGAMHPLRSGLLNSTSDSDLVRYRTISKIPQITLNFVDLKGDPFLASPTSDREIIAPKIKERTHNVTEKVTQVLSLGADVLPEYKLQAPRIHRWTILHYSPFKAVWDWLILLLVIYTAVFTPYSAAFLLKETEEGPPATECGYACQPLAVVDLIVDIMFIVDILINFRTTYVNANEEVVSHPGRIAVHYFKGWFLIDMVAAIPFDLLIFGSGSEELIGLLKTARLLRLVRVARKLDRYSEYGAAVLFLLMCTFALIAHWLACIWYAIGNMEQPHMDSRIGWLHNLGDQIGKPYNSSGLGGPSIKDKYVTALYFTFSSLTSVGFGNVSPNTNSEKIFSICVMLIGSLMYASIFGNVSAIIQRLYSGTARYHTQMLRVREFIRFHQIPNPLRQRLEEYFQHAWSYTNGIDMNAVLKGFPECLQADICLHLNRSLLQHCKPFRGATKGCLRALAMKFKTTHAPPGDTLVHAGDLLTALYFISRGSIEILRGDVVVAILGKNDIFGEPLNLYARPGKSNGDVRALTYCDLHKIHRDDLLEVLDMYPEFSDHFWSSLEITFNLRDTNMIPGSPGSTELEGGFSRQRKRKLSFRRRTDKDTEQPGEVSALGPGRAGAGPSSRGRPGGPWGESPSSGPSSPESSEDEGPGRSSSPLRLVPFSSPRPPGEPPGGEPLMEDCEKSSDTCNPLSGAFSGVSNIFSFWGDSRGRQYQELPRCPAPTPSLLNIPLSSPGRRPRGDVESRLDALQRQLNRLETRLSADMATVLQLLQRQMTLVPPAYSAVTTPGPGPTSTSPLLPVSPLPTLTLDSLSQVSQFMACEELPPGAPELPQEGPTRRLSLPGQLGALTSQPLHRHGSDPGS
row,Structure (SMILES),"hERG current change (%, negative = inhibition) at 10uM"
1,O=C(NC1CCCCCCC1)c1c(Cl)cccc1Cl,7.78%
2,Cc1ccc(S(=O)(=O)CC(=O)c2ccccc2[N+](=O)[O-])cc1,24.9%
3,COc1ccccc1/C=C/C(=O)OCC(=O)Nc1ccccc1Sc1ccccc1,-1.93%
4,COc1cccc(CNC(=O)CN(C)S(=O)(=O)c2ccc(Br)s2)c1,-15.5%
5,CCOc1cc(CNS(=O)(=O)c2ccc3c(c2)CC(=O)N3C)cc(OCC)c1OCC,-34.2%
6,COCCn1c(=S)[nH]c2cc(C(=O)NC(C)C)ccc2c1=O,-4.4%
7,CN1C(=O)c2ccccc2Sc2ccc(C(=O)O)cc21,8.7%
8,O=C(C1=NOC(CNc2ncc(C(F)(F)F)cc2Cl)C1)N1CCOCC1 (stereo not drawn),-9.41%
9,CC(=O)N1c2ccc(S(=O)(=O)N3CCC(C(=O)NCc4ccc(C)cc4)CC3)cc2CC1C (stereo not drawn),-8.16%
10,COc1ccccc1C(=O)Nc1c2c(nn1-c1cccc(C)c1C)CS(=O)(=O)C2,-40.3%
11,COCCn1c(SCC(=O)N2CCc3ccccc3C2)nc2cc(Cl)ccc2c1=O,-25.4%
12,O=C(CN1C(=O)c2cccc3cccc1c23)N1CCN(Cc2ccc3c(c2)OCO3)CC1,-30.1%
13,COc1cc(O)c(C(CC(=O)N2CCCC2)c2ccc3c(c2)OCO3)c(OC)c1 (stereo not drawn),6.4%
14,Cn1c(=O)oc2cc(S(=O)(=O)N3CCC(C(=O)NCc4cccs4)CC3)ccc21,-11%
15,COc1cc(NC(=O)CSc2nnnn2-c2ccccc2)cc(OC)c1OC,-0.308%
16,Cc1nc2sc3c(=O)[nH]nnc3c2c(C)c1Br,15.5%
17,Cc1cc(C(=O)COC(=O)c2n[nH]c3ccccc23)c(C)n1CC1CCCO1 (stereo not drawn),-9.56%
18,Cc1nn(C)c(Cl)c1CN1CCN(C2CCCC2)C(CCO)C1 (stereo not drawn),-0.161%
19,COc1ccc(-n2c(Cn3nnc4ccccc43)n[nH]c2=S)cc1,16.6%
20,COc1ccccc1C(=O)NC(=O)COC(=O)c1nc(Cl)ccc1Cl,-3.23%
21,CC1(C)CC(=O)c2sc(NC(=O)CN3CCOCC3)nc2C1,-0.0618%
22,COc1ccc(NS(=O)(=O)c2cccc(C(=O)NCc3cccnc3)c2)cc1,-30.6%

row,Structure (SMILES),"hERG current change (%, negative = inhibition) at 10uM"
1,O=C(ONC1=NCCCCC1)c1c(F)cccc1F,-3.7%
2,Cc1cc(C(F)F)n2ncc(C(=O)NCCc3ccccc3Cl)c2n1,-56.7%
3,Cn1c(C=O)c(-c2ccc3cc[nH]c3c2)c2ccccc21,14.7%
4,Cc1ccc(C(C)C)c(OCC(=O)Nc2cccc(S(=O)(=O)NC3=NCCCCC3)c2)c1,-24.2%
5,O=[N+]([O-])c1ccc(NCCNCCOc2nonc2-c2ccccc2)c([N+](=O)[O-])c1,-68.6%
6,CCCCCSc1nnc(-c2ccccc2N)c(=O)[nH]1,3.8%
7,CCN(CC(=O)Nc1c(F)cccc1F)C(=O)/C=C/c1ccc2c(c1)OCO2,-1.26%
8,O=C(CSc1ccc(C(F)(F)F)cc1[N+](=O)[O-])Nc1ccc2ccccc2c1,1.99%
9,Cc1ccc(NC(=O)c2ccccc2N2C(=O)C3C4C=CC(C5CC45)C3C2=O)cc1C (stereo not drawn),2.91%
10,O=[N+]([O-])c1ncccc1OCc1ccc(-c2ccccc2)cc1,27.1%
11,CNCC(O)COc1ccccc1 (stereo not drawn),-5.69%
12,CC(C)Oc1ccc(CN2CCC(n3nccc3NC(=O)C3CC3)CC2)cc1,-79.4%
13,Cc1nn(-c2ccccc2)c(Cl)c1C1C(C#N)=C(N)Oc2n[nH]c(C)c21 (stereo not drawn),-7.18%
14,O=[N+]([O-])c1c(C(Cl)Cl)nn(-c2ccccc2)c1N1CCCC1,1.65%
15,Cc1c(C(=O)Nc2cccnc2)oc2ccc(Br)cc12,5.09%
16,N#CC(C#N)=c1ccc2c(c1)N1C3=C(CCCC3)CC3CCCCC31N=2 (stereo not drawn),-2.33%
17,Cc1ccc(Cl)cc1N1CCN(C(=O)C(=O)N2CCCCC2)CC1,-7.25%
18,CC1(C)CC2(CCO1)OC(=O)CC2C(=O)Nc1ccc(Cl)cc1[N+](=O)[O-] (stereo not drawn),-3.18%
19,COc1cc(/C=C2/CCC/C(=C\c3cc(O)c(OC)c(Cl)c3)C2=O)cc(Cl)c1O,13.7%
20,CCC1Oc2ccc(C)cc2N(CC(=O)N2CCOCC2)C1=O (stereo not drawn),4.58%
21,O=c1[nH]c(=O)n(-c2ccccc2Cl)c(O)c1C=NCCN1CCCCC1,6.09%
22,C=C(C)CNC(=S)N/N=C/c1ccccc1OCC(=O)O,16.2%

row,Structure (SMILES),"hERG current change (%, negative = inhibition) at 10uM"
1,O=C(CCc1ccc(S(=O)(=O)NCCc2ccccc2)cc1)Nc1ccc2c(c1)OCCO2,3.63%
2,COC(=O)c1ccc(C2=NOC(C)(c3sc(-c4ccc(Cl)cc4)nc3C)C2)cc1 (stereo not drawn),7.59%
3,CCOC(=O)C1=NN(c2ccc(Cl)cc2)C(c2ccccc2)CC1=O (stereo not drawn),-5.12%
4,CCSCCNC(=O)c1cc(-n2cnnc2)ccc1Cl,0.76%
5,O=C(Nc1ccc(F)cc1)c1cccc(N2C(=O)C3C4CCC(C4)C3C2=O)c1 (stereo not drawn),-15%
6,Cc1cc(NC(=O)CSCC(=O)Nc2ccc(C)c(C)c2)no1,-0.691%
7,CC[N+]1(CC)CC2CCC(C)(C1)C2(C)C.[I-] (stereo not drawn),7.2%
8,CCC(C)NC(=O)CN(c1cc(Cl)ccc1OC)S(C)(=O)=O (stereo not drawn),-3.02%
9,Cc1nn(-c2ccccc2)c(C)c1NC(=O)COc1ccc(Br)cc1Cl,-8.91%
10,C=CCOc1ccc2c(CC)cc(=O)oc2c1C,-15.9%
11,O=[N+]([O-])c1ccc(Cl)cc1N1CCCCC1,38.3%
12,O=C(c1ccccc1-c1ccccc1)N1CCCC1,5.04%
13,CCOC(=O)c1cnc(-n2nc(C)cc2C)nc1NCc1ccccc1,-34.7%
14,CN(Cc1ccccc1)C(=O)c1ccccc1C(=O)O,37.5%
15,OC(COCc1ccccc1)Cn1cnc2ccccc21 (stereo not drawn),-4.35%
16,C/C(=N/NC(=O)NC12CC3CC(CC(C3)C1)C2)c1ccccc1,3.09%
17,CSc1nc2ccccc2cc1/C=C(\C#N)c1ccccc1,2.83%
18,COc1cccc(/C=N/NC(=O)c2csc(-n3nc(C)cc3C(F)(F)F)n2)c1,4.54%
19,O=C(O)CNC(=O)c1ccc(S(=O)(=O)N2CCOCC2)cc1,-1.58%
20,Nc1nnnn1/N=C/c1cc(Cl)cc(Cl)c1OCc1ccc(Cl)cc1Cl,-0.427%
21,O=C(COC(=O)c1cc([N+](=O)[O-])ccc1N1CCOCC1)c1ccccc1,-20.1%
22,CC1(C)Nc2ccccc2N(CC(=O)N2CCCCC2)C1=O,7.8%

row,Structure (SMILES),"hERG current change (%, negative = inhibition) at 10uM"
1,COc1ccc(NC(=O)CNC(=O)c2nn(-c3ccc(OC)c(OC)c3)c(=O)c3ccccc23)c(OC)c1,14.5%
2,CCC(C)Sc1ccc([C@@H]2[C@@H]3C(=O)N(C)C(=O)[C@@H]3[C@]3(C(=O)OC)CCCCN23)cc1.O=C(O)C(F)(F)F (stereo partly drawn),15.3%
3,COc1ccc(COc2cc(-c3cccc(OC)c3)nc3ccc(N)cc23)cc1,-13.1%
4,O=C1C(=O)N(CC2CCCO2)C(c2ccco2)/C1=C(/O)c1ccc(F)cc1 (stereo not drawn),-13.4%
5,COc1ccc(CCN2CCCC(CN(C)Cc3cc(OC)ccc3OC)C2)cc1 (stereo not drawn),-69.1%
6,CCCCCc1cc(=O)oc2c(C(CCN3CCCC(C)C3)c3ccc4c(c3)OCO4)c(OC)cc(OC)c12 (stereo not drawn),-7.33%
7,COc1ccc2c(Cl)c(C(=O)NCCCn3ccnc3)sc2c1Cl,6.4%
8,COc1ccc(CSCC(=O)N/N=C/c2ccccc2OCc2ccccc2)cc1,6.71%
9,CCCO/N=C1/C(=O)N(c2ccccc2)c2ccccc21,-42.5%
10,CCc1ccc(OCC(=O)NNC(=S)NC(=O)C2CCCCC2)c(Br)c1,-9.29%
11,CCC(=O)N1CCN(CCN=Cc2c(O)n(C)c(=O)n(C)c2=O)CC1,20.3%
12,CCOc1ccccc1OCC(=O)Nc1nnc(C)s1,6.12%
13,COc1ccc2cc3cc(C(=O)NCCC(C)C)oc3nc2c1,6.93%
14,CCOC(=O)C1CCN(C(C)C(=O)c2c[nH]c3ccccc23)CC1 (stereo not drawn),-42.2%
15,CC(=O)Nn1cnc2c(c1=O)C1(CCCCC1)Cc1ccccc1-2,4.44%
16,CCCCCc1ccc(OCCCC[n+]2cccc(C)c2)c(CCCCC)c1.[Cl-],-71.1%
17,CC1CCCN(CCCNC(=O)CN2C(=O)CSc3ccc(S(=O)(=O)N4CCOCC4)cc32)C1 (stereo not drawn),19.5%
18,COc1ccc(CCNC(=O)CCc2cc(OC)c(OC)c(OC)c2)cc1,15.1%
19,O=C(O)C1Cc2ccccc2CN1C(=O)c1ccco1 (stereo not drawn),28.8%
20,COC(=O)CCC(=O)OC1(C)C(=O)C=C2C=C(C3CC3)N(CC3CC3)C=C2C1=O (stereo not drawn),13.3%
21,COCCN(C(=O)Cc1cccs1)C(C(=O)NC1CCCC1)c1ccc(OC)c(OC)c1 (stereo not drawn),6.93%

# — publication PMC4336329 (PLoS ONE, 2015)
